These are yes or no findings as the source states them, for the method shown. In cells and extracts the contact can be indirect. Some binding calls cover weakened binding; strength is not graded here.
Tests used:
[1] = target: GFP-tagged chromatin remodeler ATPase subunit SNF2h (UniProt O60264); assay: co-IP; HEK293 cells co-transfected with BZLF1 variants and GFP-tagged SNF2h or INO80; lysates treated with benzonase and DNase I; GFP-tagged remodelers precipitated with GFP-binder beads (GFP-Trap_A); BZLF1 detected by Western blot with the BZ1 antibody
[2] = target: GFP-tagged chromatin remodeler ATPase subunit INO80 (UniProt Q9ULG1); assay: as above
[3] = target: FLAG- and tandem Strep-tagged full-length BZLF1 (aa 1–245), expressed from p5693 in Raji cells (EBV) (UniProt P03206); assay: co-IP; Lysates of doxycycline-induced Raji cells (overnight) treated with benzonase and DNase I; Strep-tagged BZLF1 or bZIP captured on streptavidin / Strep-Tactin beads; endogenous remodelers detected by Western blot
[4] = target: FLAG- and tandem Strep-tagged BZLF1 bZIP domain (aa 175–236), expressed from p5694 in Raji cells (EBV) (UniProt P03206); assay: as above

The chains behind the UniProt entries cited, without tags or fusion partners.
UniProt O60264: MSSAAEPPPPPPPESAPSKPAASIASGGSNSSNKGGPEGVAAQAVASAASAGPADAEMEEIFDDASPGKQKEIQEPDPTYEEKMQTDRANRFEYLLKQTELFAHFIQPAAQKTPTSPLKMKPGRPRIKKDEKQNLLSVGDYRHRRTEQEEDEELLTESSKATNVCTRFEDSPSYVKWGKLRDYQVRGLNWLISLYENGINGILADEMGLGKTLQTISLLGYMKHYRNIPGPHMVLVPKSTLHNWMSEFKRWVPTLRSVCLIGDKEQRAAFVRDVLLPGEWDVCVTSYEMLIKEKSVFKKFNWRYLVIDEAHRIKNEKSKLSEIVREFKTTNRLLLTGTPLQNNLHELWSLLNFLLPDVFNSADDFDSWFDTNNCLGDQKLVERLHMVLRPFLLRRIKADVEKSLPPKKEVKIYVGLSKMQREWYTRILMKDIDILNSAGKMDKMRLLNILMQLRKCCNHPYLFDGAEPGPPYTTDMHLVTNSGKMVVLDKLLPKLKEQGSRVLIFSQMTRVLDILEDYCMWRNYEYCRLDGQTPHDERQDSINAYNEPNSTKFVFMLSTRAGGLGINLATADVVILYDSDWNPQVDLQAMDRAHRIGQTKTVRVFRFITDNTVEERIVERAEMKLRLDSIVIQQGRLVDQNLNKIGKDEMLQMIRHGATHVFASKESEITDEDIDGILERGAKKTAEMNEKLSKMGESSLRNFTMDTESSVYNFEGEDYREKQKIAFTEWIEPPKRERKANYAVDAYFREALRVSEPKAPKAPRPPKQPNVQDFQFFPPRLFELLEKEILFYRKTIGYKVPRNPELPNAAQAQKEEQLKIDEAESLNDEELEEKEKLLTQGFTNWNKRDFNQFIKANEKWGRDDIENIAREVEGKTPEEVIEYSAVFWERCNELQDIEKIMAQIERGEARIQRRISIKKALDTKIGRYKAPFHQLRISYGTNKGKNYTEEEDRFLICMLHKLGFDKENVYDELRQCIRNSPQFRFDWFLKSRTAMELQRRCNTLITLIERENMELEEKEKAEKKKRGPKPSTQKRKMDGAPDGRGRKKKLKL
UniProt Q9ULG1: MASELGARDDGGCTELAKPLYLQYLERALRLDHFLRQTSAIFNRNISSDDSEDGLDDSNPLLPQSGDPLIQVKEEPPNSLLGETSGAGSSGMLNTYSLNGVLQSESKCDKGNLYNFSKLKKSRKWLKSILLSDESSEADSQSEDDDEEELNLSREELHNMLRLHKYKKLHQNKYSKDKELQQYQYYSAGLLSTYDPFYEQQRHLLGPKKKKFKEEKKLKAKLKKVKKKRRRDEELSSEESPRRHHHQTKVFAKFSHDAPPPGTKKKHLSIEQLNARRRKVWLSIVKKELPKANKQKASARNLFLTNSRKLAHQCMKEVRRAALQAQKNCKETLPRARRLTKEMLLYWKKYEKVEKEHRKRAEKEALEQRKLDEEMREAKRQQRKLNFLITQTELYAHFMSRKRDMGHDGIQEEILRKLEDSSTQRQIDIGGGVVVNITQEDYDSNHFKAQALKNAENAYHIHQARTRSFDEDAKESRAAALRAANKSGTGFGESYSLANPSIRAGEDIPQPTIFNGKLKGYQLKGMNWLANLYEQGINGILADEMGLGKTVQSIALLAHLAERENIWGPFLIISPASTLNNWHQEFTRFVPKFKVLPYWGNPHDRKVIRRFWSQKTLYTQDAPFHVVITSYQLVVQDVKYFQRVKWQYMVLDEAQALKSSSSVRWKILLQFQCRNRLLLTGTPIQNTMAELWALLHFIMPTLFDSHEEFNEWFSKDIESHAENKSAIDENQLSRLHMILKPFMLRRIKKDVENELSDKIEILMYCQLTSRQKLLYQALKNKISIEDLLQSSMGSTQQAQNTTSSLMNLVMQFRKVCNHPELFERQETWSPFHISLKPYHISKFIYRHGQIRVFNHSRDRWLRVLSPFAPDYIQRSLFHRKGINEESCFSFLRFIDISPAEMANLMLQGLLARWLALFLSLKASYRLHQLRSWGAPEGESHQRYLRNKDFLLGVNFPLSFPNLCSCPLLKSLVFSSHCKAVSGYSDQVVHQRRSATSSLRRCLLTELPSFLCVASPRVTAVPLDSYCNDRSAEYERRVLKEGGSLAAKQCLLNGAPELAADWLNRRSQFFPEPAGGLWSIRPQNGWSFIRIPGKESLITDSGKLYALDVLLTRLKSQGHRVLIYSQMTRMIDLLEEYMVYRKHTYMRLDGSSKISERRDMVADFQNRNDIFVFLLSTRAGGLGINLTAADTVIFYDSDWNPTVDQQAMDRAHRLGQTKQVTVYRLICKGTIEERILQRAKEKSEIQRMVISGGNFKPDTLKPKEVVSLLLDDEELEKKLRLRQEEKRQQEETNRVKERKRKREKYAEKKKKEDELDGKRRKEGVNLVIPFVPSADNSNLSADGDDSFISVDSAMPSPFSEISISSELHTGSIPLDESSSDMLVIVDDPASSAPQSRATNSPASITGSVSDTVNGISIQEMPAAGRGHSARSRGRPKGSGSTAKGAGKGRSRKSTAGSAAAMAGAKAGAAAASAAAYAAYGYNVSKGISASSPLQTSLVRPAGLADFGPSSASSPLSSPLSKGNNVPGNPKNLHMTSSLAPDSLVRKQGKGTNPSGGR
UniProt Q14839: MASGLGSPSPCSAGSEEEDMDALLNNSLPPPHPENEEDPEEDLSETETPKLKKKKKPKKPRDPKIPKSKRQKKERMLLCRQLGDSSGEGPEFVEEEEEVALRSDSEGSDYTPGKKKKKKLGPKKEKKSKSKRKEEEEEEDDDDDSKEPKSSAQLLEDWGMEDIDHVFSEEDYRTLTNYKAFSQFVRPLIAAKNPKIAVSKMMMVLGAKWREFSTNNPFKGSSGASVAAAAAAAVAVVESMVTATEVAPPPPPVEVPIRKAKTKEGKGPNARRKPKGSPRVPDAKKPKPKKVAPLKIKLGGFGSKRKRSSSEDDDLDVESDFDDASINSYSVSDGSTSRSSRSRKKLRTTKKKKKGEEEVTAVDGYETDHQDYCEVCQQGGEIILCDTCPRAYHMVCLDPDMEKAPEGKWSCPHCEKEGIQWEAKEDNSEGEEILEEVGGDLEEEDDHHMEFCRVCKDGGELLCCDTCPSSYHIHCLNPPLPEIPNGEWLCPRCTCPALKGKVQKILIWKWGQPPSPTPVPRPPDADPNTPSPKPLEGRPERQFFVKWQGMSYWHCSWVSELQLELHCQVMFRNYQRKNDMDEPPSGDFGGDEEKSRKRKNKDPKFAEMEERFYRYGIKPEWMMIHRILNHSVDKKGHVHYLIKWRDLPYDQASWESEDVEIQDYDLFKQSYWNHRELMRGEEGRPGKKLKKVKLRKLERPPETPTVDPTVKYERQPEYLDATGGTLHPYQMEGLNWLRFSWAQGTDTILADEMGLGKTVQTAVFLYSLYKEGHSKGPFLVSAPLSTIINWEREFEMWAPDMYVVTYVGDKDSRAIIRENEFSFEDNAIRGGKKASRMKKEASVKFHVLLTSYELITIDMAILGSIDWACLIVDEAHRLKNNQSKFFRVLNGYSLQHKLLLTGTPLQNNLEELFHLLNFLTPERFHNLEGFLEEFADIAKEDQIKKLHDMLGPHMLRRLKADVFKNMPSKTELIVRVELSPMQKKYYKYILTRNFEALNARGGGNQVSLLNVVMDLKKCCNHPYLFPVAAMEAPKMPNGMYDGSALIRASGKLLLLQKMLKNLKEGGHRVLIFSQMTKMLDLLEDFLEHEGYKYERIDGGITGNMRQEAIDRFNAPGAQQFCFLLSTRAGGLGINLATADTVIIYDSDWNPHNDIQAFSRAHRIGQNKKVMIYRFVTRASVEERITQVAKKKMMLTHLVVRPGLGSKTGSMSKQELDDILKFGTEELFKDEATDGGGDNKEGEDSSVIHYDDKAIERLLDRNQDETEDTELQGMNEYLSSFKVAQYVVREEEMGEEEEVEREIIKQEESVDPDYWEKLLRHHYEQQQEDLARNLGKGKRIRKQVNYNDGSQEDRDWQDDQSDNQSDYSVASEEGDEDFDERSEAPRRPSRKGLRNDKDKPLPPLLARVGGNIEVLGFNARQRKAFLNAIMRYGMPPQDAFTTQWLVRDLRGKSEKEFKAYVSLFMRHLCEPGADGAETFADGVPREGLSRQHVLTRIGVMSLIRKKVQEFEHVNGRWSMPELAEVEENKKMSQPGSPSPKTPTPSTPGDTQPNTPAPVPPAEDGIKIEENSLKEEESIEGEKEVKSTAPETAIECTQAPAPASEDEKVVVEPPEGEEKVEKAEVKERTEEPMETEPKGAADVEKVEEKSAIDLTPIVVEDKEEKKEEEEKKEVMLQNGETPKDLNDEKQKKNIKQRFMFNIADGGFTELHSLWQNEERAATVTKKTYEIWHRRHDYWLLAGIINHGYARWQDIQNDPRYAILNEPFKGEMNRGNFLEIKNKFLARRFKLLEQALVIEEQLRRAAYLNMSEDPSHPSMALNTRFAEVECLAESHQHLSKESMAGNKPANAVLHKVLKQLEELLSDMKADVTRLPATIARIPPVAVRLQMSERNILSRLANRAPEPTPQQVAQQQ

Substance | binding [1] | other results
BZLF1 aa 1–245, FLAG- and tandem Strep-tagged, expressed in HEK293 cells (from UniProt P03206 1-245) | binds | binding [2]: binds
BZLF1 aa 175–245, expressed in HEK293 cells (from UniProt P03206 175-245) (domain or fragment) | binds | –
BZLF1 aa 175–236, FLAG- and tandem Strep-tagged, expressed in HEK293 cells (from UniProt P03206 175-236) (domain or fragment) | binds | –
SNF2h, catalytic ATPase subunit of ISWI remodelers (encoded by SMARCA5), endogenous in Raji cells (from UniProt O60264 1-1052) | – | binding [3]: binds; binding [4]: binds
BZLF1 aa 149–245 (ZΔTAD), FLAG- and tandem Strep-tagged, expressed in HEK293 cells (from UniProt P03206 149-245) (domain or fragment) | binds | –
CHD4, endogenous in Raji cells (from UniProt Q14839 1-1912) | – | binding [3]: no binding
BZLF1 aa 1–236, FLAG- and tandem Strep-tagged, expressed in HEK293 cells (from UniProt P03206 1-236) (domain or fragment) | binds | –
